# According to the supplement of paper PMC9446081:
# The campaign covered roughly 39,000 compounds. About 220 (0.56%) showed activity. This is one part of the list.
# Tested on: Escherichia coli K-12 BW25113
# Assay: relative growth (OD600 normalised to plate interquartile mean) (fraction); higher = less growth inhibition, active = 0.2 or less
# Conditions: 50 µM; LB; incubation time: overnight (16-24 h)
# 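Also: static incubation at 37 °C against the wild-type strain, values averaged over two biological replicates.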
row,SMILES,relative growth
1,CC(C)(Sc1ccc(CCN(CCCCC2CCCCC2)C(=O)NC2CCCCC2)cc1)C(=O)O,inactive: 0.893
2,COc1ccc(NC(=O)Nc2ccc3c(c2)CC(=O)N([C@@H](C)CO)C[C@@H](C)[C@H](CN(C)CC2CCCCC2)O3)cc1,inactive: 0.996
3,O=C(C[C@H]1CC[C@H]2[C@@H](COC[C@@H](O)CN2S(=O)(=O)c2ccc(Cl)cc2)O1)N[C@@H]1CCN(Cc2ccccc2)C1,inactive: 0.984
4,Cc1ccc(S(=O)(=O)N(C)C[C@@H]2Oc3ccc(NC(=O)c4ccncc4)cc3C(=O)N([C@@H](C)CO)C[C@H]2C)cc1,inactive: 1.02
5,CCC(=O)O.[NaH],inactive: 0.978
6,COc1ccc(CN(C)C[C@@H]2OCCCC[C@@H](C)Oc3ccc(NC(=O)c4ccccc4)cc3C(=O)N([C@@H](C)CO)C[C@H]2C)cc1,inactive: 1.01
7,C[C@H](CO)N1C[C@H](C)[C@H](CN(C)S(=O)(=O)c2cn(C)cn2)Oc2ncc(-c3cc4ccccc4o3)cc2C1=O,inactive: 1.03
8,Cc1noc(C)c1NC(=O)Nc1ccc2c(c1)C(=O)N([C@@H](C)CO)C[C@@H](C)[C@@H](CN(C)C(=O)Nc1ccccc1)OCCCC[C@@H](C)O2,inactive: 0.998
9,C[C@@H]1CN([C@H](C)CO)C(=O)c2cc(C#Cc3ccccn3)cnc2O[C@@H]1CN(C)C(=O)CCN1CCCCC1,inactive: 0.991
10,C[C@H]1CN([C@@H](C)CO)C(=O)c2cc(NC(=O)Cn3cnnn3)ccc2O[C@@H]1CN(C)S(=O)(=O)c1ccc(Cl)cc1,inactive: 1.02
11,C[C@H]1CN([C@@H](C)CO)C(=O)c2cc(NC(=O)Nc3ccc(F)cc3)ccc2O[C@H]1CN(C)S(C)(=O)=O,inactive: 1.02
12,C[C@@H]1CCCCO[C@@H](CN(C)C(=O)C2CCCCC2)[C@@H](C)CN([C@H](C)CO)C(=O)c2cc(NC(=O)c3ccccc3)ccc2O1,inactive: 0.982
13,C[C@@H]1CN([C@H](C)CO)C(=O)c2cccc(NC(=O)NC3CCCCC3)c2O[C@@H]1CN(C)C(=O)Nc1ccc(C(F)(F)F)cc1,inactive: 0.878
14,C[C@H](CO)N1C[C@H](C)[C@H](CN(C)Cc2ccc3c(c2)OCO3)OCCCC[C@H](C)Oc2ccc(NC(=O)c3ccccc3)cc2C1=O,inactive: 1.03
15,CCC[C@@H](O)C#Cc1cnc2c(c1)C(=O)N([C@H](C)CO)C[C@H](C)[C@H](CN(C)C(=O)Nc1ccccc1)O2,inactive: 1.01
16,O=C(N[C@H]1CC[C@H](CCNS(=O)(=O)c2ccc(F)cc2)O[C@@H]1CO)C1CC1,inactive: 1
17,Nc1ccc(F)cn1,inactive: 0.993
18,CCCC#Cc1cnc2c(c1)C(=O)N([C@@H](C)CO)C[C@@H](C)[C@@H](CN(C)C(=O)c1ccc3c(c1)OCO3)O2,inactive: 0.992
19,C[C@@H]1O[C@@H](O[C@@H]2CC[C@@]3(C)[C@@H](CC[C@]4(C)[C@@H]3CC=C3[C@@H]5CC(C)(C)CC[C@]5(C(=O)O[C@@H]5O[C@H](CO[C@@H]6O[C@H](CO)[C@@H](O)[C@H](O)[C@H]6O)[C@@H](O)[C@H](O)[C@H]5O)CC[C@]34C)[C@]2(C)CO)[C@H](O)[C@H](O[C@@H]2OC[C@@H](O)[C@H](O)[C@H]2O)[C@H]1O,inactive: 0.992
20,NCc1ccc(C(N)=O)cc1,inactive: 1.01
21,CNC(=O)[C@H]1O[C@@H](n2cnc3c(NCc4cccc(I)c4)ncnc32)[C@H](O)[C@@H]1O,inactive: 0.991
22,C[C@@H]1CN([C@H](C)CO)C(=O)c2cccc(NC(=O)Nc3cccc4ccccc34)c2O[C@H]1CN(C)C(=O)Nc1cccc2ccccc12,inactive: 1.04
23,Cc1noc(C)c1NC(=O)N(C)C[C@@H]1OCCCC[C@@H](C)Oc2ccc(NC(=O)Nc3ccc4c(c3)OCO4)cc2C(=O)N([C@H](C)CO)C[C@@H]1C,inactive: 1.04
24,O=C(C[C@@H]1CC[C@H]2[C@@H](COC[C@H](O)CN2C(=O)c2ccccc2F)O1)N1CCN(c2ccccc2)CC1,inactive: 0.976
25,C[C@@H]1CN([C@@H](C)CO)S(=O)(=O)c2ccc(C#CC3(O)CCCC3)cc2O[C@H]1CN(C)C(=O)Nc1cccc(F)c1,inactive: 1.02
26,C[C@@H]1CCCCO[C@@H](CN(C)Cc2ccc3c(c2)OCO3)[C@@H](C)CN([C@@H](C)CO)C(=O)c2cc(NC(=O)Nc3ccccc3)ccc2O1,inactive: 1.05
27,COc1ccc(CN(C)C[C@@H]2OCCCC[C@H](C)Oc3ccc(NS(=O)(=O)c4ccc(C)cc4)cc3C(=O)N([C@H](C)CO)C[C@@H]2C)cc1,inactive: 1

row,SMILES,relative growth
1,CC(C)NC(=O)N(C)C[C@H]1Oc2c(NS(=O)(=O)c3ccccc3)cccc2C(=O)N([C@H](C)CO)C[C@@H]1C,inactive: 1
2,C[C@H]1CN([C@@H](C)CO)C(=O)c2cccc(NC(=O)Nc3ccc(F)cc3)c2O[C@@H]1CN(C)S(C)(=O)=O,inactive: 1
3,C[C@H](CO)N1C[C@H](C)[C@@H](CN(C)Cc2ccc3c(c2)OCO3)OCCCC[C@H](C)Oc2ccc(NS(=O)(=O)c3cccs3)cc2C1=O,inactive: 0.979
4,C[C@@H]1CN([C@@H](C)CO)C(=O)CCCn2cc(nn2)CO[C@H]1CN(C)C(=O)Nc1ccc2c(c1)OCCO2,inactive: 0.995
5,Cc1ccc(Oc2ccccc2)c(NC(=O)c2ccccc2)c1,inactive: 1.01
6,COc1ccc(NC(=O)Nc2ccc3c(c2)C(=O)N([C@H](C)CO)C[C@H](C)[C@H](CN(C)C(=O)Nc2ccc(F)cc2)OCCCC[C@@H](C)O3)cc1,inactive: 1.02
7,O=C(O)Cn1cc2c(n1)CCCC2,inactive: 1.01
8,OC[C@H]1COc2ccccc2O1,inactive: 0.965
9,O=C(O)CNC(=O)c1[nH]nc2ccccc12,inactive: 0.993
10,C[C@H](CO)N1C[C@H](C)[C@H](CN(C)C(=O)Nc2ccc(F)cc2)Oc2ccc(NC(=O)CCCCCC(=O)Nc3ccccc3N)cc2CC1=O,inactive: 0.996
11,C[C@@H]1CN([C@H](C)CO)C(=O)c2cc(NC(=O)CCN3CCOCC3)ccc2O[C@H]1CN(C)S(=O)(=O)c1cccs1,inactive: 1.01
12,C[C@@H]1CN([C@@H](C)CO)C(=O)c2cccc(NS(=O)(=O)c3cccs3)c2O[C@H]1CN(C)Cc1ccc(Cl)c(Cl)c1,inactive: 1.02
13,C[C@@H]1CCCCO[C@@H](CN(C)Cc2ccc(Cl)c(Cl)c2)[C@@H](C)CN([C@H](C)CO)C(=O)c2cc(NC(=O)Cc3ccccc3)ccc2O1,inactive: 1.02
14,C[C@@H]1CCCCO[C@@H](CN(C)Cc2ccc(C(=O)Nc3ccccc3N)cc2)[C@@H](C)CN([C@H](C)CO)C(=O)c2cc(NC(=O)Nc3ccc(C(F)(F)F)cc3)ccc2O1,inactive: 0.982
15,C=C[C@](C)(O)CC/C=C(\C)C(=O)O[C@@H]1[C@@H](O[C@@](C)(C=C)CC/C=C(\C)C(=O)O[C@H]2C[C@@]3(C(=O)O[C@H]4OC[C@@H](O[C@H]5O[C@@H](CO)[C@@H](O)[C@@H](O[C@H]6O[C@@H](CO)[C@@H](O[C@H]7O[C@@H](CO)[C@@H](O)[C@@H](O)[C@@H]7O)[C@@H](O)[C@@H]6O)[C@@H]5O)[C@@H](O)[C@@H]4O)[C@@H](O)C[C@@]4(C)C(=CC[C@H]5[C@@]6(C)CC[C@@H](O[C@H]7O[C@@H](CO)[C@@H](O[C@H]8O[C@@H](CO)[C@@H](O)[C@@H](O[C@H]9OC[C@@H](O)[C@@H](O)[C@@H]9O)[C@@H]8O)[C@@H](O)[C@@H]7O)C(C)(C)[C@@H]6CC[C@@]54C)[C@@H]3CC2(C)C)OC[C@@H](O)[C@H]1O,inactive: 0.638
16,C[C@@H]1CCCCO[C@@H](CN(C)C(=O)Nc2ccc(C(F)(F)F)cc2)[C@H](C)CN([C@H](C)CO)C(=O)c2cc(NS(=O)(=O)c3ccccc3)ccc2O1,inactive: 1.04
17,COc1cccc(S(=O)(=O)Nc2ccc3c(c2)[C@@H]2C[C@@H](CC(=O)NCc4cccc(F)c4)O[C@H](CO)[C@@H]2O3)c1,inactive: 0.99
18,COCC#Cc1cnc2c(c1)C(=O)N([C@H](C)CO)C[C@@H](C)[C@H](CN(C)S(=O)(=O)c1cn(C)cn1)O2,inactive: 0.97
19,C[C@H](CO)N1C[C@H](C)[C@H](CN(C)S(=O)(=O)c2ccccc2)OCCCC[C@H](C)Oc2ccc(NC(=O)Nc3cccc4ccccc34)cc2C1=O,inactive: 1.06
20,C[C@@H]1CCCCO[C@H](CN(C)C(=O)c2ccccc2)[C@@H](C)CN([C@@H](C)CO)C(=O)c2cc(NC(=O)Cc3ccccc3)ccc2O1,inactive: 1.03
21,C[C@H]1CN([C@@H](C)CO)C(=O)c2cc(NC(=O)Nc3ccc4c(c3)OCO4)ccc2O[C@@H]1CN(C)Cc1ccc(C(F)(F)F)cc1,inactive: 1.06
22,CCCN(C)C[C@@H]1Oc2cc(C#Cc3ccccc3OC)ccc2S(=O)(=O)N([C@@H](C)CO)C[C@@H]1C,inactive: 0.987
23,Cn1nnc2cc(NC(=O)NCCO)ccc21,inactive: 0.925
24,CO[C@H]1CN(C)C(=O)c2cc(NC(=O)C3CC3)ccc2OC[C@H](C)N(C(=O)Cc2ccccn2)C[C@H]1C,inactive: 1.04
25,Cc1noc(C)c1NC(=O)N(C)C[C@H]1OCCCC[C@H](C)Oc2ccc(NC(=O)Cc3ccccc3)cc2C(=O)N([C@@H](C)CO)C[C@@H]1C,inactive: 0.987
26,C[C@H](CO)N1C[C@H](C)[C@H](CN(C)S(C)(=O)=O)Oc2c(NC(=O)Nc3ccc(F)cc3)cccc2C1=O,inactive: 1
27,CN1C(=O)c2cc(NC(=O)C3CCOCC3)ccc2OC[C@@H]2O[C@H](CC(=O)NCCc3ccncc3)CC[C@@H]21,inactive: 0.994
